# In PubChem BioAssay AID1030 (National Center for Advancing Translational Sciences (NCATS), 2008):
# Values joined by “and” are separate entries in the source; they are usually repeats but may differ in a detail not shown here. Equal entries are not always repeated. Hit rate of the full screen: of about 220,000 compounds, about 16,000 (7.3%) were called active. This list was built around the results that the source calls inconclusive (neither active nor inactive); the mix of calls is not that of the screen. Calls follow the shape of the dose curve; as a rule, active = well fitted inhibition curve with a large enough effect (not every such curve was filed as active); inconclusive = small, poorly fitted or top-dose-only effect, or another doubt; inactive = no such curve, though single readings can be large or run the other way. Potencies beside an inconclusive call are fits to weak or partial responses and may not hold up.
# Molecular target: Aldehyde dehydrogenase 1A1 (Homo sapiens) (UniProt P00352)
# UniProt P00352, sequence (P00352 whole entry, looked up): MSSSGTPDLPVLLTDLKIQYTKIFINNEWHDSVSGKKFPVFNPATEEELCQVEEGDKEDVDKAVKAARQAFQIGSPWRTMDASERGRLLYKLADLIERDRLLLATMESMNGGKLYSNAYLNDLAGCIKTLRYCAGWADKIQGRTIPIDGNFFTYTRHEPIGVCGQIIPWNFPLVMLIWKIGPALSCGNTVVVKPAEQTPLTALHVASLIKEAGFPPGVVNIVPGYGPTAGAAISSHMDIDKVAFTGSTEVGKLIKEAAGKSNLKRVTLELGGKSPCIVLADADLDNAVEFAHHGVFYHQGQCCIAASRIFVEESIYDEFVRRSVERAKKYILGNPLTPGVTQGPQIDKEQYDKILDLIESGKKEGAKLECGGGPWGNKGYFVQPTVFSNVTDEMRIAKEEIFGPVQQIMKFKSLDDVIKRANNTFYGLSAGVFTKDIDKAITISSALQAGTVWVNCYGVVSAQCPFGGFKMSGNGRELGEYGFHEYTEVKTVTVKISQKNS
# Assay: qHTS Assay for Inhibitors of Aldehyde Dehydrogenase 1 (ALDH1A1);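 as to activity, negative = inhibition: plate controls were no enzyme wells and a reference inhibitor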
# Details: Purified ALDH1A1, NADH fluorescence, propionaldehyde substrate; series mostly up to 75.3 µM; activity, negative = inhibition: at the top concentration
# Potency is read from the fitted curve at half-maximal effect; tags tell the direction and shape of the fitted curve.
SMILES,Potency,"activity, negative = inhibition"
CC1(C)Cc2nc3oc4c(=O)n(CC(=O)Nc5ccccc5)cnc4c3cc2CO1,"inconclusive: 17.8 µM [inhibitor, single point]",
Cc1ccc(N=C2NC(=O)CC(C(=O)Nc3ccc4c(c3)OCO4)S2)cc1 (stereo not drawn),"inconclusive: 3.98 µM [inhibitor, single point]",
N=c1c2c(-c3ccccc3)c(-c3ccccc3)n(Cc3ccccc3)c2ncn1CCCn1ccnc1,,inactive: 0.414%
COc1ccc(/C=C/C(=O)c2ccc3c4c(cccc24)CC3)cc1OC,"inconclusive: 11.2 µM [inhibitor, partial curve]",
Cc1ccc2nc(-c3cccc(N)c3)[nH]c2c1,"inconclusive: 35.5 µM [inhibitor, partial curve]",
Cc1ccc(S(=O)(=O)C(C)C(=O)NCCS(=O)(=O)c2ccc(Cl)cc2)cc1 (stereo not drawn),"inconclusive: 25.1 µM [inhibitor, single point]",
COc1cccc(OC)c1C(=O)N1CCN(Cc2ccc3c(c2)OCO3)CC1,,inactive: -5.24%
N/C(=N\OC(=O)Nc1ccc(Cl)cc1)c1ncc(C(F)(F)F)cc1Cl,"inconclusive: 35.5 µM [inhibitor, single point]",
O=C(O)CCn1c(SCc2cc(=O)n3ccccc3n2)nc2ccsc2c1=O,"inconclusive: 25.1 µM [inhibitor, partial curve]",
O=C(O)/C(=C\c1ccccc1OC(F)F)Sc1nnc(-c2ccc(F)cc2)o1,,inactive: 6.21%
Cc1ccc(CNC(=O)C2CCN(S(=O)(=O)c3cccs3)CC2)o1,active: 14.1 µM,
CCc1ccccc1NC(=O)CSc1nnc(-c2ccco2)n1N,,inactive: -8.54%
O=C(c1cccc(F)c1)N1CCC[C@@]2(CCN(Cc3ccncc3)C2)C1,"inconclusive: 35.5 µM [inhibitor, single point]",
FC(F)Oc1ccc(NC(=S)N2CCc3ccccc32)cc1,,inactive: -5.3%
COc1ccc(OCCC(=O)NCC23CC4CC(CC(C4)C2)C3)cc1,"inconclusive: 22.4 µM [inhibitor, partial curve]",
Cc1ccc(NS(=O)(=O)c2ccc(Cl)c(NC(=S)NC(=O)C3CCCCC3)c2)cc1Cl,"inconclusive: 39.8 µM [inhibitor, single point]",
CC(NC(=O)Nc1nnc(C(F)(F)F)s1)N1C(=O)C2C3C=CC(C3)C2C1=O (stereo not drawn),"inconclusive: 28.2 µM [inhibitor, single point]",
CS(=O)(=O)N(CC(=O)NC1CCCC1)C1CCCCC1,,inactive: 6.46%
CC(=O)Nc1ccc(S(=O)(=O)NNC2=NS(=O)(=O)c3ccccc32)cc1,,inactive: -14.5%
CCCn1c(=S)[nH]c2ccc(C(F)(F)F)cc21,active: 17.8 µM,
CC(C)Cn1c(SCC(=O)Nc2cccc(S(N)(=O)=O)c2)nc2ccccc2c1=O,"inconclusive: 14.1 µM [inhibitor, partial curve]",
CCOC(=O)C1=C(C)NC(=S)NC1c1ccc(-c2cccc(Cl)c2C)o1 (stereo not drawn),active: 0.891 µM,
CN1CCN(NC(=O)c2ccc(Cl)s2)CC1,,inactive: 3.39%
COc1ncnc2c1sc1nc(-c3ccccc3)c3c(c12)CCCC3,"inconclusive: 22.4 µM [inhibitor, partial curve]",
Cc1ccc(C(=O)NCC(=O)NCC(=O)OCC(=O)c2ccc([N+](=O)[O-])cc2)cc1,active: 1 µM,

SMILES,Potency,"activity, negative = inhibition"
Cc1ccc(S(=O)(=O)N2CCCC2C(=O)OCc2ccco2)cc1 (stereo not drawn),active: 2.82 µM,
CCn1cc(C(=O)O)c(=O)c2cc(F)c(N3CCNC(C)C3)c(F)c21 (stereo not drawn),"inconclusive: 31.6 µM [inhibitor, partial curve] and inconclusive: 28.2 µM [inhibitor, partial curve]",
NC(=O)c1cc[n+](CC2=C(C(=O)O)N3C(=O)[C@@H](NC(=O)C(c4ccccc4)S(=O)(=O)[O-])[C@H]3SC2)cc1 (stereo partly drawn),,inactive: 7.1%
CCOc1cc(/C=N\O)cc(Cl)c1OCC,"inconclusive: 37.7 µM [inhibitor, single point]",
O=C(Cc1ccccc1)NCC(=O)OCC(=O)c1ccc(Cl)c([N+](=O)[O-])c1,"inconclusive: 28.2 µM [inhibitor, single point]",
CCc1ccc(OCc2nnc(SCCN3CCOCC3)n2C)cc1,"inconclusive: 39.8 µM [inhibitor, single point]",
O=C(N/N=C/c1ccccc1[N+](=O)[O-])C(=O)N1CCCC1,,inactive: -1.44%
O=C(NC(=S)NCCC1=CCCCC1)c1ccccc1Br,active: 7.08 µM,
O=C(O[C@@H]1Cc2c(O)cc(O)cc2OC1c1ccc(O)c(O)c1)c1cc(O)c(O)c(O)c1 (stereo partly drawn),,inactive: -7.49%
O=C(Nc1cc(C(F)(F)F)ccc1-n1cncn1)c1ccc(-c2ccccc2)cc1,"inconclusive: 31.6 µM [inhibitor, partial curve]",
CS(=O)(=O)Nc1ccc([N+](=O)[O-])cc1Oc1ccccc1,inactive,
COCCn1c(=O)c(-c2ccc(Cl)cc2)nc2cnc(N3CCOCC3)nc21,"inconclusive: 5.62 µM [inhibitor, full curve]",
O=C(O)c1cccc(NC(=S)NC(=O)c2ccc(-c3ccc(Cl)cc3)o2)c1,"inconclusive: 39.8 µM [inhibitor, single point]",
CCOC(=O)c1c(NC(=O)c2ccco2)sc2c1CCCC2,"inconclusive: 5.01 µM [inhibitor, full curve]",
O=S(=O)(c1ccc(OCC(O)CNC23CC4CC(CC(C4)C2)C3)c(Cl)c1)N1CCOCC1 (stereo not drawn),,inactive: 0.578%
Cc1ccc2nc(-c3cccc(NC(=O)c4ccc5c(c4)OCCO5)c3)oc2c1,"inconclusive: 39.8 µM [inhibitor, single point]",
CCOC(=O)c1sc(NC(=O)c2ccc(S(=O)(=O)N(CC)CC)cc2)nc1C,"inconclusive: 31.6 µM [inhibitor, single point]",
Cc1onc(-c2ccccc2)c1-c1csc(N/N=C/c2ccccc2)n1,"inconclusive: 39.8 µM [inhibitor, single point]",
COc1ccc(C(=O)NCCN2CCOCC2)c(OC)c1,,inactive: 5.89%
Cc1cccc(C)c1OCC(=O)NC(Cc1c[nH]c2ccccc12)C(=O)O (stereo not drawn),,inactive: 6.38%
C=CCOCC/C=C1/c2ccccc2C(OC)C1C (stereo not drawn),,inactive: 3.16% [at 13.5 µM]
CN(C)CN1CSC(=S)N(CN(C)C)C1,active: 3.98 µM,
COc1cccc(C(C#N)N2CCCCC2)c1O (stereo not drawn),,inactive: 7.51%
COc1ccc(OC)c(NC(=O)c2[nH]c(C)c(C(C)=O)c2C)c1,,inactive: 1.79%
O=C(C1CCCO1)N1CCN(c2ncccn2)CC1 (stereo not drawn),"inconclusive: 39.8 µM [inhibitor, single point]",

SMILES,Potency,"activity, negative = inhibition"
CCOc1ccc(-n2c(C)nc3cc(C(=O)NCc4ccco4)ccc32)cc1,"inconclusive: 44.7 µM [inhibitor, single point]",
CC(C)CC(C(=O)Nn1cnnc1)N1C(=O)c2ccccc2C1=O (stereo not drawn),"inconclusive: 37.7 µM [inhibitor, single point]",
CC(=O)Nc1nnc(SCC(=O)NCC2CCCO2)s1 (stereo not drawn),"inconclusive: 39.8 µM [inhibitor, single point]",
CC(C)(C)C(=O)/C(C#N)=C/c1ccc(O)cc1,active: 1.58 µM,
Cn1cccc1C(=O)C(=O)Nc1ccc(F)c(F)c1,,inactive: -3.25%
CCOc1cc(/C=C2/SC(=S)N(CC3CCCO3)C2=O)ccc1O (stereo not drawn),active: 0.447 µM,
COc1ccc(OC)c(-n2c(N)c(C(=O)NCC3CCCO3)c3nc4ccccc4nc32)c1 (stereo not drawn),"inconclusive: 31.6 µM [inhibitor, partial curve]",
CCn1nc(C)c(CNC(=O)Nc2ccccc2C(=O)OC)c1C,"inconclusive: 44.7 µM [inhibitor, single point]",
CCCNC(=O)/C=C/c1ccc(C(C)C)cc1,"inconclusive: 39.8 µM [inhibitor, single point]",
CS(=O)(=O)N(CC(=O)NC1CCCC1)Cc1ccc(F)cc1,,inactive: 2.61%
O=c1ccc2c(OCCCCc3ccccc3)c3ccoc3cc2o1,"inconclusive: 31.6 µM [inhibitor, partial curve]",
Clc1ccccc1-c1nc2nc3ccccc3nc2n1-c1ccc2c(c1)OCO2,active: 11.2 µM,
CCc1nc(SCC(=O)N2CCN(C(=O)c3ccco3)CC2)c2c3c(sc2n1)CCCC3,active: 28.2 µM,
CC1CN(C(=O)c2cccn(Cc3c(Cl)cccc3Cl)c2=O)CC(C)O1 (stereo not drawn),"inconclusive: 44.7 µM [inhibitor, single point]",
COc1ccc2c(c1)c(=O)cc(-c1ccccc1)n2C,"inconclusive: 39.8 µM [inhibitor, single point]",
CC(=O)NC(=S)Nc1sc2c(c1C#N)CCCCC2,active: 1.41 µM,
Cc1ccc(C2NC(=O)NC(O)(C(F)(F)F)C2C(=O)c2ccccc2)o1 (stereo not drawn),active: 8.91 µM,
O=C(O)CCc1ccc(-c2ccc(Cl)cc2)o1,"inconclusive: 39.8 µM [inhibitor, single point]",
Cc1cc(C)n(-c2cc(N3CCN(C(=O)c4cccc(Br)c4)CC3)ccc2[N+](=O)[O-])n1,active: 14.1 µM,
Cc1c(NC(=S)NC(=O)Cc2ccccc2)cccc1C(=O)O,"inconclusive: 39.8 µM [inhibitor, single point]",
Nc1nc(N2CCN(C(=O)c3ccco3)CC2)nc2ccc(Br)cc12,"inconclusive: 25.1 µM [inhibitor, partial curve]",
CCOC(=O)C1CCN(S(=O)(=O)c2cccc(-c3cn4ccccc4n3)c2)CC1,"inconclusive: 39.8 µM [inhibitor, single point]",
COc1ccc(-c2ccc(-c3noc(C(C)C)n3)c(OC)n2)cc1,"inconclusive: 28.2 µM [inhibitor, partial curve]",
